According to the supplement of paper PMC11417369:
This is one part of the list.

The sequences below were run on PfAP2-HC AP2 domain (GST-tagged) (assay: gcPBM binding intensity (ln(normalized median fluorescence intensity)); higher = stronger DNA binding).
How it was run: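 An Agilent 4 × 180k array carrying primer-extended double-stranded 36-bp intergenic genomic probes and negative controls received GST-tagged P. falciparum DNA-binding domains expressed in E. coli, about 25 μg on average, for 1 h. The binding buffer contained 1× PBS, 1% milk, 0.2 mg/ml BSA, 0.5% salmon testes DNA and 0.03% Triton X-100. Binding intensity is the top Masliner-normalised natural-log median intensity across replicate spots of either probe orientation, read after Alexa488 anti-GST antibody staining and a 488 nm scan.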

| Sequence | gcPBM binding intensity (ln) |
| --- | --- |
| TATAAAAATATTTAATGTACGAATCTGTGATATATC [XGTACX_site7881] | 9.5 |
| CTAAACAGAATTATCACACATATAAATATAAACATA [CACACA_site4560] | 9.68 |
| ATATATTACATATGTGTGCACGTTCCAAAATTTTTA | 9.91 |
| ATTATTAAAAGAAGAAGTACTTATATATTAATATTA [XGTACX_site5227] | 9.59 |
| TTTTCATGTTGTAAAGCATGCTTTACTCATAAAAAA [TGCATGCA_site917] | 9.1 |
| AAAATACACGCATACACACACACACGCGCACATATA [CACACA_site6448] | 10.6 |
| GGTCTTATTTTTAGTAGTACAAATATAATATACATA [XGTACX_site6483] | 9.59 |
| TTTTTTTTTTTTTGTTGTACCCATCATATATACATA [XGTACX_site4342] | 9.58 |
| TTTTTTGTTTGAATGGTGCATTTTGTAATTATATTT | 9.75 |
| ATAATATCATAATATTGTACATATTTTATTTTAAAT [XGTACX_site1115] | 9.5 |
| CAACTAACATATATTCAACACACATATACCTTCAAC [CACACA_site8988] | 9.96 |
| TTAAAATAGATATTAGTGCAAAAAAAAAAAAATAAA | 9.64 |
| TTTTTAATTAACTTTTTATAAATAAATAAAAATATA [GTGCAC_negctrl_site334] | 9.07 |
| AAAAGAAAATTAAATTAACACACATAAATATATATA [CACACA_site8482] | 9.85 |
| TTCACATACAGAAACACACACATATTTATAAATTAA [CACACA_site7699] | 10.5 |
| ATTATTTAATTTTATTAAAAAAAAACAAATTAACAG [GTGCAC_negctrl_site152] | 9.44 |
| TAACATATTATATATACATGCATACGTGAACTAATC [TGCATGCA_site888] | 9.72 |
| ATTGTATATGTATATGCACACAATATATGTACTTAT [CACACA_site2611] | 9.97 |
| GATATATTATTTGAATGTACATATTATATTTATATT [XGTACX_site907] | 9.79 |
| GTTAGAATTGTTAGGTGGTCAAAAAGGAGAAAAAAA [XGTACX_site2086] | 9.56 |
| TTTTTTTAGTTAATTAAACACACAAAAAAAAAAATA [CACACA_site9301] | 9.4 |
| AAAAAAATAAAAAGGAACGTCTATAGTTAATTTATT [CACACA_negctrl_site919] | 9.87 |
| AATCGATTGGATAATATTTTTTCTCTTAATTTTTTG [GTGCAC_negctrl_site165] | 9.44 |

| Sequence | gcPBM binding intensity (ln) |
| --- | --- |
| TATATTAGAAGAAATTCACACATTCATGTAATCTTA [CACACA_site4706] | 9.52 |
| ATGTTGCACAATGTTACACACACAATATATATCGTT [CACACA_site4833] | 10.3 |
| TATTATTTTTCCTAATGTACAAAATATATATTTTTA [XGTACX_site2727] | 9.39 |
| TTCTTATATAAATACACACACAAAATATCTACAATG [CACACA_site4568] | 10.5 |
| TTTGAATATATAAATATGCACACTTCTATTATAAAT [CACACA_site3359] | 9.63 |
| TACTTACAGATAATAACACACAAGAAAAAAATAAAA [CACACA_site4716] | 10 |
| TACAAATATGGACACACACACATATTTATATTTATA [CACACA_site6420] | 11 |
| AAAAAACAGACATACACACACACACGGATATTTATA [CACACA_site7570] | 11.4 |
| ATATAAATGTATATGACACACATATATATATATATA [CACACA_site889] | 10 |
| AATATTTATGGGTGCACACAAACATACAGATATATA [CACACA_site5810] | 9.92 |
| TATATATATATCAAGTGTACTTGTGTTTGTAATATT [XGTACX_site8854] | 9.74 |
| TTTTTTTTGTTGTTGTTGCACTTGATAGGAATGGCT [GTGCAC_site9701] | 9.59 |
| AAAAAAAACAGACACACACACAAATACATACACAAA [CACACA_site705] | 10.5 |
| CCATTTACAAAAAGGAGTACACAAATATATGTTTAA [XGTACX_site649] | 9.51 |
| AAAATAAATAAATACACACACACGAATATATATATA [CACACA_site1683] | 10.8 |
| TTTTAAAAATAATAAATAAATAAAATTGAAGTTCCA [CACACA_negctrl_site305] | 9.43 |
| TATATTTATTTATATACACACACTTGTATAAAAAAT [CACACA_site2036] | 9.92 |
| TTAAATATTTTTAGAGTGCATGTAATAAAAATATAA [GTGCAC_site9414] | 9.51 |
| TATATCAAAATACATACACACATTTGTATATACATT [CACACA_site2696] | 10 |
| TATATACAGAAACACACACACACATATATATATATA [CACACA_site2247] | 10.2 |
| TATCTATATGGGAACACACTCATAAATATATATCTA [CACACA_site4815] | 9.72 |
| TATATATATATATTTACACACATTCATATAAATTCA [CACACA_site3532] | 9.66 |
